Measured values taken from the supplement of paper PMC10126150.
Values marked as one replicate rest on one cluster of the flow cell; about a third of the high ones do not repeat.

Test system: ATP
Assay: switch fluorescence ratio, 500 uM ATP over buffer (Cy3 cluster intensity, sum of 5 cycles each) (fold (ratio)); higher = stronger signal-on switching upon ATP binding; sequences stand for … in TCGTCGGCAGCGTCAGATGTGTATAAGAGACAGTTTTTTTTTTTTTTTTTTTTTTTTT…TC
Settings: aptamer strand: ATP DNA aptamer (quencher-CACCTGGGGGAGTATTGCGGAGGAAGG + anchor), 100 nM annealed; ATP concentration: 500 uM; one replicate
How it was run: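 For every switch-domain sequence, the fluorescence ratio is the mean of per-cluster values, each being summed target-cycle Cy3 intensity over summed buffer-cycle Cy3 intensity. Clusters outside 100-1000 RFU were excluded. On a modified Illumina MiSeq flow-cell, the Cy3-labelled switching-strand clusters were annealed to 100 nM quencher-labelled ATP aptamer, imaged in selection buffer and then after 15 min with 500 uM ATP at 22 °C. Five such cycles were run, with NaOH stripping and re-annealing between them.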
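Also: ATP exposure 15 min at 22 °C before imaging.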

Sequence	switch fluorescence ratio
AGCATCTTAT	0.97
CGCTTTTTCG	1
CAAGGTCGGA	0.962
TGGGCACGC	1.02
GAACCGGGGG	0.983
CAAGAGTTG	1.01
CTCTTTCCGG	0.939
ACGACAGCGG	1.13
GCCAGAACGA	1.04
TTGAGTGTG	1.05
TTGTCATGCA	1.01
TGTTAAGTGG	0.96
CCTAGTTCAA	1.22
TACGAAAATA	1.08
TGAGTTCGTC	0.996
TTTGGGACCA	1.03
AAAACGCGCG	0.972
ACTCGGACTC	1.12
GAGATTCAAT	1.01
CCCGATGGTG	1.79
GCTAGCTGAC	1.25
GAAGGATGTG	1.01
ACTGTGTTTC	0.978

Sequence	switch fluorescence ratio
GTTATCGATA	0.999
CGCAGTATTT	1.1
TTAAGATCGT	0.995
ACATCCGATG	1.02
ATATGAATTT	0.962
AGAGCATAAT	1.01
CAGGCTTCAT	1.05
GTCTACCATA	1.06
TGGTACGAAC	1.27
TTCGTCGTCC	1.03
CTTAATGGAG	1.01
TTCGAACTGT	1.01
TTAAACGCAC	1.77
AGAGGGGCCT	0.992
TGAGTAGATG	1.02
ATTTAACGAC	0.994
ATTAGGACTG	1.02
TAGAATCGG	0.988
ACTGGGTGTG	0.989
TCCTGCTTTT	0.951
GTGGATAGCA	0.973
ACCCTGGGAT	1.03
CGCCTATACT	4.28

Sequence	switch fluorescence ratio
CATAGCCGCA	1.07
CCTATTTTA	0.996
CGCTTATGTA	0.993
GCACGGTACA	1.68
TGCGACCTGC	1.02
CAGTGCTGGG	1.02
AGATTAAATT	0.998
AGTGGGTTGC	0.985
CAACGAAAAC	1.28
GACGTATAGA	1.06
TTTTCTAAAC	0.967
GCGTGCAGAA	1.03
AGGCATCGTT	0.981
AATGTGT	0.961
GCCATACGGA	1.07
GTCTCAAGTA	0.98
ATCAATGCGT	0.944
GCATGGCATC	1.01
TCGACAGGGT	0.997
TTCATTAGGT	1.01
GGTTCACGCA	1.08
GCCACAGAAA	0.997
TTTAGCACAC	2.07

Sequence	switch fluorescence ratio
GGTATTCGTG	0.983
GACAACAACA	1.07
CTTTTCGTCC	1.02
AATGGCAAGC	1.2
GTTCGTTGTA	1.01
GTGCGGGACA	0.998
TTCTTTAAGC	1.06
GGTTTAAGCC	0.96
TCCGGACTGA	1.1
CTGTAGCTCT	1.85
GGGTGATAG	0.99
TTAAATCAG	1.01
CAAAGTACTC	1.32
TGGTAGTATA	0.995
GAACACTTTG	0.991
TCTAGATAAC	1
ACTATGAATA	0.993
TCATGTCTCA	1.04
TCAATTAGAC	1.02
GCGTGAACGT	1.05
GCCACTATAG	1.01
TATGAAGAAT	1.02
GGCCTTTGAC	0.98

Sequence	switch fluorescence ratio
AATCTTATTC	0.979
TAACGCCCAT	1.08
ATAGCAAATG	1.04
CACAGACCAC	1.15
GGCATCTAAA	0.988
GTAGTAGTGG	0.98
TAATTTTGCT	0.944
GAAATAAGCC	1.02
AAACTCATTT	1.02
AAGGTGCCAG	1.13
AGGAGTTGGT	1.01
ATAATTATGA	1.01
CAAGCAGCAT	1.14
AATTTTGATT	0.977
AAGCCGGATT	0.989
GAGACTAATT	1.05
GATACGGTCT	1.08
CTAGTAGACA	1.04
AAGTTCACC	0.964
CTGGAGAATT	1.09
GATACGACCT	2.07
TTATAAGACC	0.975
TGGGAATCGT	1

Sequence	switch fluorescence ratio
CTCTAAACTC	1.17
GGTCAGGGCC	1.03
ACCCTTTTTT	1.05
AGCTCGGGTT	0.975
TCGTAGTCCT	1.05
AAGAATGGCT	1.02
ATCTCATCGG	1.06
CACATATCT	1.1
CGATGACAAC	1.13
AGTTATAGAC	1.06
TTTAAGGCCC	1.25
TGTAATCAG	0.966
GAGGAGGCG	0.963
ACCTCAGCAT	2.41
GCAATCCTGC	1.22
TTTCGCAATA	1.62
AAAATCGTAT	1.01
CGTTTTAGGG	0.977
AGCGAGAATA	1
ATAGGAAGCG	0.988
AGTCGTAC	1.02
CTGAGGCTG	1.04
ACACTAAAGT	1.02

Sequence	switch fluorescence ratio
GAAACGTGGT	1.02
TGATATTAAG	0.992
TACTCACAG	1.13
ACAATATGAA	1.05
AGCGATCTA	1.01
CGGTCACAGC	0.978
GTACACCCCA	1.16
GCGCCCACAC	1.35
GCAAAAATTA	1.05
CGTATCGAGC	0.987
AACCGGCTAG	0.98
TGCTCTTTTG	0.999
TGCGCCCGT	0.993
AGCAGGTGAT	1.87
GTTGCAGGT	0.972
AAGCAAAAAC	1.36
TCTACCGTGA	1.31
AAACATACAA	1.17
GTGACCGGGG	0.98
